Measured values from US5441983A, “Treatment of infection by enveloped virus with calix(N)arene compounds” (Genelabs Incorporated, priority 1992, dated 1995).

System: HSV-1
Test: Topical treatment of ocular HSV-1 infection, rabbits
Details: all topical doses
Method: In one treatment method, described in Example 18, graded topical doses of compound Y-1 were administered to the corneal regions of rabbits previously infected with HSV-1. Clinical slit lamp biomicroscopy was used to assess disease severity as measured by average epithelial disease involvement (FIG. 33A), conjunctivitis rating (FIG. 33B), iritis rating (FIG. 33C), and stromal disease (FIG. 33D).
Viral titers were recovered from tear film at days 0, 3, 5, and 7 post-inoculation and from epithelial scrapings performed on day 7 post-infection (sacrifice). Viral titers were determined by plaque reduction and multiple regression analysis, as described in Example 10. […]
On day 4 post inoculation (PI), animals were evaluated by slit lamp microscopy. […]
The concentration of Y-1 for the ascending dose tolerance study were based upon the ED90 concentrations determined in the virus yield or CPE assays. […]
Topical therapy with 0-19 μg Y-1 in 50 μl was initiated on day 4 post-inoculation (PI) and continued to day 7 PI. […] The ocular HSV-1 induced disease severity was recorded daily. […]
On day 7 PI (sacrifice), the corneal epithelium was scraped from the eyes and HSV was recovered on HFF cell monolayers. Corneal epithelial co-cultures were evaluated daily by inverted light microscopy. […]

O=S(=O)(O)c1cc2c(O)c(c1)Cc1cc(S(=O)(=O)O)cc(c1O)Cc1cc(S(=O)(=O)O)cc(c1O)Cc1cc(S(=O)(=O)O)cc(c1O)Cc1cc(S(=O)(=O)O)cc(c1O)Cc1cc(S(=O)(=O)O)cc(c1O)Cc1cc(S(=O)(=O)O)cc(c1O)Cc1cc(S(=O)(=O)O)cc(c1O)C2 [Y-1]
viral titer in tear film: a marked reduction of viral titer was observed in all animals
